# Laboratory results as given in PubChem BioAssay AID504845 (National Center for Advancing Translational Sciences (NCATS), 2011).
# Values joined by “and” are separate entries in the source; they are usually repeats but may differ in a detail not shown here. Equal entries are not always repeated. About 150 (0.038%) of roughly 390,000 compounds were called active. Inconclusive results (about 3%) are left out. Calls follow the shape of the dose curve; as a rule, active = well fitted inhibition curve with a large enough effect; inconclusive = small, poorly fitted or top-dose-only effect; inactive = no such curve, though single readings can be large or run the other way. Only a part is listed here, and it is no random draw. More than one record can exist for a structure, and the calls need not agree.
# Target: Regulator of G-protein signaling 4 (Homo sapiens) (UniProt P49798)
# Assay: Inhibitors of Regulator of G Protein Signaling (RGS) 4: qHTS; also: nearly all actives have a fitted effect of over 75% in size
# Settings: Transcreener GDP fluorescence polarization, RGS4-accelerated GTP hydrolysis; series mostly up to 114 µM; activity change, negative = inhibition: at the top concentration
# Text: G-protein-coupled receptors (GPCRs) are well-established targets for drug discovery and development. Members of the "regulator of G-protein signaling" (RGS)-protein superfamily have recently emerged as critical modulators of specific GPCR signaling pathways. […] Combining specific RGS domain inhibitors with existing GPCR agonists should potentiate cellular responses and could also increase the specificity of action of existing therapeutics. Small molecule modulators of RGS domain activity should also have clinical utility in inhibiting or potentiating the actions of endogenous GPCR agonists. In particular, the diversity of RGS proteins with highly localized and dynamically regulated distributions in the human brain makes this family of proteins attractive targets for pharmacotherapy of central nervous system (CNS) disorders such as Parkinson's disease, schizophrenia, and anxiety.
# This assay was used to screen the NIH Molecular Libraries Small Molecule Repository (MLSMR) in order to identify a small molecule that inhibits RGS4.
# NIH Chemical Genomics Center [NCGC]
# NIH Molecular Libraries Probe Centers Network [MLPCN]
# Assay Submitter (PI): David Siderovski, University of North Carolina Chapel Hill (School of Medicine)
# Two microliters of 500nM (2x working concentration) is dispensed into black medium-binding solid-bottom Kalypsys plates. Then with the Kalypsys pintool 23nl of control and compounds are transferred; the control compound is […] CCG-4986 (working concentration). After a 10 minute incubation at room temperature 2ul of antibody is added with the Kalypsys dispenser; (-)RGS4/Transcreener GDP solution in columns 3 and 4 which consisted of 10nM (2x working concentration) Alexa633, 20uM GTP, and 20 ug/ml GDP antibody and (+)RGS4/Transcreener GDP solution in columns 1,2, and 5 to 48 which consists of 900nM RGS4 (2x working concentration), 10nM Alexa633, 20 ug/ml GDP antibody. The plate is centrifuged at 1000 RPM for 15 seconds to remove any possible bubbles and then incubated for 5 minutes at ambient room temperature. An initial fluorescent polarization read (620 nm/688 nm) is performed on the Envision before the plate is incubated for 90 minutes at 30 deg C at a relative humidity of 80%. The plate is once more centrifuged at 1000 RPM for 15 seconds and another Envision fluorescent polarization (620 nm/688 nm) read is carried out.
# % is scaled to controls: 0 for no effect and ±100 for the full control effect; potency is read from the fitted curve at half-maximal effect.
# UniProt P49798, sequence (P49798 whole entry, looked up): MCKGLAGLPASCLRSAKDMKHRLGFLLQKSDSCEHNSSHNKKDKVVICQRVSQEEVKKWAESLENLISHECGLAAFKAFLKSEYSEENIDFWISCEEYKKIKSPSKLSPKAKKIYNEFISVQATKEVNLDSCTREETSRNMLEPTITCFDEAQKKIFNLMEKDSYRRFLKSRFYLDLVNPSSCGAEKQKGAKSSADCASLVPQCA
SMILES,"activity change, negative = inhibition",Potency
CC(=O)OC1C([N+]2(C)CCCCC2)C[C@H]2C3CC[C@H]4C[C@H](OC(C)=O)C([N+]5(C)CCCCC5)CC4(C)C3CCC12C (some centres undefined),inactive: 40% [at 56.9 µM],
O=P1(N(CCCl)CCCl)NCCCO1 (centres undefined),inactive: 1.04%,
CCCN[C@@H]1CCc2c(OC)cccc2[C@@H]1C,inactive: 73.2% [at 56.9 µM],
CN(C)[C@@H]1C(=O)C(C(N)=O)=C(O)[C@@]2(O)C(=O)C3=C(O)c4c(O)cccc4[C@@](C)(O)[C@H]3[C@H](O)[C@@H]12,inactive: 11%,
Cc1ccc(NC(=O)Cn2c(=O)oc3ccccc32)cc1C,inactive: -13.1%,
NC(N)=Nc1ccc2[nH]c3c(c2c1)C[C@@]1(O)[C@H]2Cc4ccc(O)c5c4[C@@]1(CCN2CC1CC1)C3O5 (some centres undefined),inactive: -2.44%,
O=C(O)Cc1cnc[nH]1,,inactive
CN1C2CCC1CC(OC(=O)c1cc(Cl)cc(Cl)c1)C2 (centres undefined),,inactive
C[N+]1(C)C2CCC1CC(OC(=O)c1c[nH]c3ccccc13)C2 (centres undefined),inactive: -19.4%,
CNC(=O)Oc1ccc2c(c1)[C@]1(C)CCN(C)C1N2C (some centres undefined),inactive: 12.8%,
C[C@]12CCC3C(CC[C@H]4C[C@H](O)CC[C@]34C)C1CC[C@@H]2C(=O)CO (some centres undefined),inactive: 1.59% [at 56.9 µM],
Clc1ccc(COC(Cn2ccnc2)c2ccc(Cl)cc2Cl)c(Cl)c1 (centres undefined),inactive: -20.7%,
CC(=O)[C@H]1CC[C@H]2[C@@H]3CC=C4C[C@@H](OS(=O)(=O)O)CC[C@]4(C)[C@H]3CC[C@]12C,inactive: -17.5%,
CC(C)CC(NP(=O)(O)O[C@@H]1O[C@@H](C)[C@H](O)[C@@H](O)[C@H]1O)C(=O)NC(Cc1c[nH]c2ccccc12)C(=O)O (some centres undefined),inactive: 12.8% [at 56.9 µM],
C/C(O)=C(\C#N)C(=O)Nc1cc(Br)ccc1Br,,inactive
NN=C(N)N,,inactive
C[C@]12CCC(=O)C=C1CC[C@@H]1[C@@H]2CC[C@]2(C)C(=O)CC[C@@H]12,inactive: 11.3%,
Cc1ccc(/C=C2/C(=O)NC(=O)N(CCc3ccc(F)cc3)C2=O)s1,inactive: -48%,
CCCCCCC(C)(C)c1ccc([C@@H]2C[C@H](O)CC[C@H]2CCCO)c(O)c1,inactive: 14.6%,
C=CCN1CC[C@@]23c4c5ccc(O)c4O[C@H]2/C(=N\N=C2/CC[C@@]4(O)[C@H]6Cc7ccc(O)c8c7[C@@]4(CCN6CC=C)[C@@H]2O8)CC[C@]3(O)[C@@H]1C5,inactive: -36.6% [at 56.9 µM],
NC(N)=Nc1ccc2[nH]c3c(c2c1)C[C@@]1(O)[C@H]2Cc4ccc(O)c5c4[C@@]1(CCN2CC1CC1)[C@H]3O5,,active: 23.8 µM
CCC1(C2=NCCN2)Cc2ccccc2O1 (centres undefined),,inactive

SMILES,"activity change, negative = inhibition",Potency
C=C(C)[C@@H]1CC[C@]2(C(=O)O)CC[C@]3(C)C(CCC4[C@@]5(C)CC[C@H](O)C(C)(C)C5CC[C@]43C)C12 (some centres undefined),inactive: -10.9%,
CCNC(=O)C1OC(n2cnc3c(N)ncnc32)C(O)C1O (centres undefined),inactive: -18.7%,
C[N+]1(C)CCc2cc3c(cc2[C@H]1[C@@H]1OC(=O)c2c1ccc1c2OCO1)OCO3,,inactive
O=c1[nH]oc2c1CCNC2,,inactive
CC[C@@H](CO)NC(=O)[C@@H]1C=C2c3cccc4c3c(cn4C)C[C@H]2N(C)C1,,inactive and active: 18.9 µM
CC(=O)N1CC[N+](C)(C)CC1,inactive: 58.5% [at 56.9 µM],
CC1=C(C(=O)Nc2ccccc2)S(=O)(=O)CCO1,inactive: 55.2%,
c1ccc2c(c1)OCC(C1=NCCN1)O2 (centres undefined),,inactive
c1ccc(C2CNCc3ccccc32)cc1 (centres undefined),inactive: 70% [at 56.9 µM],
CN1CCC2(CC1)C(C#N)=C(N)NC(S)=C2C#N,inactive: -50.5%,
CN1CCC[C@H]1c1cccnc1,,inactive
C[C@]1(C(=O)O)CCC[C@]2(C)c3cc(O)ccc3CC[C@@H]12,,active: 1.06 µM
CC(=O)OC1C([N+]2(C)CCCCC2)C[C@H]2C3CC[C@H]4C[C@H](OC(C)=O)C([N+]5(C)CCCCC5)CC4(C)[C@H]3CCC12C (some centres undefined),inactive: -8.35%,
C[C@]12CCC3C(CC[C@H]4C[C@H](O)CC[C@]34C)[C@@H]1CC[C@@H]2C(=O)CO (some centres undefined),inactive: 310% [at 56.9 µM],
CC1=NN(c2ccccc2)C(=O)C1/C=C1/C(=O)NC(=O)N(c2cc(C)cc(C)c2)C1=O (centres undefined),inactive: -47.2%,
CC(C)C[C@H]1C(=O)N2CCC[C@H]2[C@]2(O)O[C@](NC(=O)C3C=C4c5cccc6[nH]c(Br)c(c56)C[C@H]4N(C)C3)(C(C)C)C(=O)N12 (some centres undefined),inactive: -5.22%,
CCCCC(C)C(OC(=O)CC(CC(=O)O)C(=O)O)C(CC(C)CC(O)CCCCC(O)CC(O)C(C)N)OC(=O)CC(CC(=O)O)C(=O)O (centres undefined),inactive: -11.3%,
CC(C)CC1C(=O)N2CCC[C@H]2[C@]2(O)O[C@](NC(=O)[C@@H]3C=C4c5cccc6[nH]c(Br)c(c56)C[C@H]4N(C)C3)(C(C)C)C(=O)N12 (some centres undefined),inactive: 11.1%,
CCN1C[C@@]2(COC)C3[C@@H](OC)C4[C@@H]1C3([C@@H]1C[C@]3(O)[C@H](OC(=O)c5ccccc5)[C@@H]1[C@]4(OC(C)=O)[C@@H](O)[C@@H]3OC)[C@H](OC)C[C@H]2O,inactive: 5.7% [at 56.9 µM],
CC(C)(O)C1O[C@H]2CC[C@@]3(C)[C@@](O)(CC[C@H]4Cc5c([nH]c6ccccc56)[C@@]43C)C2=CC1=O (some centres undefined),inactive: 210% [at 56.9 µM],
CN1C[C@H](CNC(=O)OCc2ccccc2)C[C@@H]2c3cccc4c3c(cn4C)C[C@H]21,inactive: -3.14%,
CC(=O)[C@H]1CCC2C3CC[C@H]4C[C@@H](O)CC[C@]4(C)C3CC[C@@]21C (some centres undefined),inactive: -22.3%,
